We go through 29 compounds from the antibiotic and cytotoxicity screens of Wong et al. (2023).

The list shows a part of the results.

The test system of one test is HepG2. The test is described as follows: cytotoxicity call (relative viability < 0.9). As to conditions: 10 µM.
`C[C@@H]1CN([C@@H](C)CO)C(=O)c2cccc(NC(=O)NC3CCCCC3)c2O[C@@H]1CN(C)Cc1ccc(Cl)c(Cl)c1`: the cytotoxicity call was “inactive”.

`Cc1noc(C)c1S(=O)(=O)N(C)C[C@H]1Oc2ccc(NC(=O)CCCN(C)C)cc2C(=O)N([C@@H](C)CO)C[C@H]1C`: the cytotoxicity call was “inactive”.

Regarding `NC1CCC(N2CCC3(CC2)CC(=O)N(Cc2cc(F)cc(F)c2)C3)CC1` (centres undefined), the cytotoxicity call is “inactive”.

`NC(=O)CSc1nnc(Cc2cc(=O)[nH]c(=O)[nH]2)n1-c1ccccc1`: the cytotoxicity call is “inactive”.

As for `Nc1nc(=O)[nH]cc1Br`, the cytotoxicity call was “inactive”.

As to `CNC[C@H]1Oc2ccc(NS(=O)(=O)c3cn(C)cn3)cc2CC(=O)N([C@H](C)CO)C[C@@H]1C`, the cytotoxicity call was “inactive”.

`Cc1noc(C)c1NC(=O)N(C)C[C@@H]1OCCCC[C@@H](C)Oc2ccc(NC(=O)CCCCCC(=O)Nc3ccccc3N)cc2C(=O)N([C@H](C)CO)C[C@@H]1C`: the cytotoxicity call is “inactive”.

On to `C[C@@H]1CN([C@H](C)CO)C(=O)c2cc(NS(C)(=O)=O)ccc2O[C@H]1CN(C)S(=O)(=O)c1cccs1`, for which the cytotoxicity call is “inactive”.

As for `COc1cccc(S(=O)(=O)Nc2ccc3c(c2)[C@@H]2C[C@H](CC(=O)NCC(F)(F)F)O[C@H](CO)[C@@H]2O3)c1`, the cytotoxicity call was “inactive”.

With `CC(=O)Nc1ccc(S(=O)(=O)Nc2ccc([N+](=O)[O-])cc2)cc1`, the cytotoxicity call was “inactive”.

For the compound `CN(C)C(=N)NCCC[C@H](N)C(=O)O`, the cytotoxicity call was “inactive”.

Turning to `COc1ccc(S(=O)(=O)N(C)C[C@@H]2OCCCC[C@H](C)Oc3ccc(NS(C)(=O)=O)cc3C(=O)N([C@H](C)CO)C[C@H]2C)cc1`, the cytotoxicity call was “inactive”.

As to `COC(=O)[C@]12CCC(C)(C)C[C@H]1[C@H]1C(=O)C=C3[C@@]4(C)C=C(C#N)C(=O)C(C)(C)[C@@H]4CC[C@@]3(C)[C@]1(C)CC2`, the cytotoxicity call was “active”.

In the case of `C[C@@H]1CN([C@@H](C)CO)S(=O)(=O)c2ccc(-c3cncnc3)cc2O[C@H]1CN(C)C(=O)Cc1cccnc1`, the cytotoxicity call was “inactive”.

The test system of another test is S. aureus RN4220. The test is described as follows: growth inhibition call (relative growth <= 0.2). As to conditions: 50 µM.
Regarding `NCC(O)c1ccc(O)c(O)c1.O=C(O)C(O)C(O)C(=O)O` (centres undefined), the growth inhibition call is “inactive”.

Take `C=CC(=O)Nc1cccc([C@@H](CCc2ccc(OC)c(OC)c2)OC(=O)[C@@H]2CCCCN2C(=O)C(=O)C(C)(C)CC)c1`: the growth inhibition call is “inactive”.

Consider `Cc1ccc(S(=O)(=O)Nc2ccc3c(c2)C(=O)N([C@H](C)CO)C[C@H](C)[C@H](CN(C)S(=O)(=O)c2cn(C)cn2)O3)cc1`, for which the growth inhibition call is “inactive”.

For `C[C@@H]1O[C@@H](O[C@H]2[C@H](O)[C@@H](O)[C@H](OC[C@H]3O[C@@H](OC(=O)[C@]45CCC(C)(C)C[C@@H]4C4=CC[C@H]6[C@@]7(C)CC[C@H](O[C@H]8OC[C@H](O)[C@H](O)[C@H]8O[C@H]8O[C@@H](C)[C@H](O)[C@@H](O)[C@H]8O)[C@@](C)(CO)[C@@H]7CC[C@@]6(C)[C@]4(C)CC5)[C@H](O)[C@@H](O)[C@@H]3O)O[C@@H]2CO)[C@H](O)[C@H](O)[C@H]1O`, the growth inhibition call is “inactive”.

Consider `NCc1ccc(C(=O)O)cc1`, for which the growth inhibition call is “inactive”.

`CC(C)NC(=O)Nc1cccc2c1O[C@@H](CN(C)Cc1ccc(-c3ccccc3)cc1)[C@H](C)CN([C@H](C)CO)C2=O`: the growth inhibition call is “inactive”.

For the compound `CN1CCN(C(=O)C[C@H]2CC[C@@H]3[C@H](COc4ccc(NC(=O)C5CCOCC5)cc4C(=O)N3C)O2)CC1`, the growth inhibition call is “inactive”.

Consider `C[C@H](CO)N1C[C@H](C)[C@H](CN(C)S(=O)(=O)c2ccc(Cl)cc2)OCCCC[C@H](C)Oc2ccc(NS(=O)(=O)c3ccc(F)cc3)cc2C1=O`, for which the growth inhibition call was “inactive”.

For the compound `C[C@@H]1CN([C@@H](C)CO)C(=O)c2cccc(NC(=O)c3ccc(-c4nccs4)cc3)c2O[C@@H]1CN(C)Cc1ccc(-c2ccccc2)cc1`, the growth inhibition call was “inactive”.

`COc1ccc(S(=O)(=O)Nc2ccc3c(c2)CC(=O)N([C@@H](C)CO)C[C@@H](C)[C@H](CN(C)C(=O)Nc2c(C)noc2C)O3)cc1`: the growth inhibition call was “inactive”.

For `C[C@@H]1CN([C@H](C)CO)C(=O)c2cc(NS(=O)(=O)c3ccccc3)ccc2O[C@H]1CN(C)S(=O)(=O)c1ccccc1`, the growth inhibition call is “inactive”.

Take `C[C@@H]1CN([C@H](C)CO)C(=O)c2cc(NC(=O)CCN3CCOCC3)ccc2O[C@H]1CN(C)C(=O)NC1CCCCC1`: the growth inhibition call is “inactive”.

With `CC(C)NC(=O)N(C)C[C@H]1Oc2cc(C#Cc3cccc(F)c3)ccc2S(=O)(=O)N([C@H](C)CO)C[C@@H]1C`, the growth inhibition call is “inactive”.

`COC1=C(N)C(=O)c2nc(-c3nc(C(=O)O)c(C)c(-c4ccc(OC)c(OC)c4O)c3N)ccc2C1=O`: the growth inhibition call was “inactive”.

Take `C[C@H](CO)N1C[C@H](C)[C@H](CN(C)S(=O)(=O)c2cn(C)cn2)Oc2ncc(-c3ccc(F)cc3)cc2C1=O`: the growth inhibition call was “inactive”.
